# Source: ChEMBL document CHEMBL4888484, “Replenishing the malaria drug discovery pipeline: Screening and hit evaluation of the MMV Hit Generation Library 1 (HGL1) against asexual blood stage Plasmodium falciparum ,using a nano luciferase reporter read-out” (2022)
# Out of some 150,000 compounds screened, about 540 (0.36%) showed an effect of 50% or more. The list shows a part of the results.
# System: Plasmodium falciparum
# Assay: Primary screen in NF54 nanoGlo assay, in single point, at 2uM, 72h; a lower Z score goes with more inhibition
# Assay type: functional, Erythrocyte
# Conditions: timepoint 72 hour
SMILES,% Inhibition,Z score
CC(=O)N[C@@H](C)C(=O)Nc1nc2cc3c(cc2s1)OCCO3,-7%,0.96
O=C(NCc1cncc(C2CC2)c1)Nc1nccs1,-9%,1.04
Cn1c(=O)c2c(=O)c3nc[nH]c3[nH]c2n(C)c1=O,-4%,0.55
Cc1n[nH]c(C)c1CCCN(C)C[C@H]1CCOC(C)(C)C1,-18%,2.27
COc1cccc(C(=O)NCC(=O)N[C@H]2CCCOc3c(F)cccc32)c1,-12%,2.11
O=C1[C@@H]2C[C@@H](CN2C2CCC2)Oc2ccccc2N1Cc1ccccn1,-2%,0.34
O=C(C1CCN(S(=O)(=O)Cc2ccccc2F)CC1)N(Cc1ccccc1)Cc1ccccc1,0%,0.09
NC(=O)CCNC(=O)C[C@H]1C(=O)NCCN1Cc1ccc2ccccc2c1,-17%,2.48
O=C(CCCOc1ccccc1)NCCN1CCNC1=O,-28%,2.7
Cc1ccc(NC(=O)[C@H]2CCCN(S(=O)(=O)c3cc(-c4noc(C(C)C)n4)sc3C)C2)cc1C,-18%,1.78
CCOc1ccc(N[C@@H](C)c2nc3ccccc3c(=O)[nH]2)cc1C,-14%,1.28
Cc1noc(COC(=O)c2cc(-c3ccc4c(c3)OCCO4)nc3ccccc23)n1,-8%,0.77
CC(C)CCC(CC(=O)NCCCN(C)C)C1CCOC(C)(C)C1 (centres undefined),-3%,0.43
Cc1ccc(S(=O)(=O)Nc2ccc(C3CC3)cc2)cc1,31%,-3.5
Cc1ccc(NC(=O)c2csc(-c3ccc(N4CCOCC4)nc3)n2)cc1F,-1%,0.12
COc1ccc(NC(=O)CCCc2nc(-c3cc4ccc(C)cc4nc3O)no2)cc1,-17%,3.34
Cc1nc(C)c([C@H](C)NS(=O)(=O)N2CCc3ccccc3C2)s1,1%,-0.08
Cn1cc(-c2cc3n(n2)CCCN3C(=O)CCC(=O)NCCCN2CCCCC2)c2ccccc21,-8%,1.07
CCc1ccc(C(=O)N2CCC3(CC2)OC[C@@H](C(=O)NCc2ccccn2)N3C(=O)c2ccc(F)cc2)cc1,-13%,1.31
COc1ccccc1C(=O)Nc1c(-c2cccc3ccccc23)c(=O)c2ccccc2n1C,-20%,2.75
COc1cccc(N2C(=O)N[C@@H]3CCN(S(=O)(=O)c4cccs4)[C@@H]3C2=O)c1,-5%,0.77
O=C(O)c1cn(C[C@H](O)c2ccccc2)cc(Oc2ccccc2)c1=O,-5%,0.8
Cc1ccc(C2=NNC(=O)C3CCCCC23)cc1 (centres undefined),-4%,0.75
CCN(Cc1cccs1)C(=O)c1cc2c(cc1O)CCCC2,7%,-1.28
CC(C)(C)OC(=O)NCc1cccc(NCc2cc(C#N)cs2)c1,-15%,2
Cc1cccc2sc(OC3CCN(C(=O)Cn4cnc5ccccc5c4=O)CC3)nc12,9%,-1.29

SMILES,% Inhibition,Z score
Cc1ccc(-c2csc(NC(=O)Cc3c(C)noc3C)n2)c(C)c1,-1%,0.08
CCN(CC(=O)Nc1ccc(OC)cc1)C(=O)c1cc(-c2cccs2)nc2c1c(C)nn2C,15%,-1.94
O=C(C#Cc1ccc2c(c1)OCO2)N1CC2CC=CCC2C1 (centres undefined),-4%,0.57
Cc1cc(C(=O)N(CCN2CCOCC2)c2nc3c(C)cc(Cl)cc3s2)c(C)o1,-13%,1.96
OCCC1CCCN(C2C=CCCC2)C1 (centres undefined),4%,-0.42
CC(NC(=O)C1CCCN(C(=O)c2ccncc2)C1)C(=O)NCc1ccccc1 (centres undefined),-5%,1.06
COCC(=O)Nc1cc(C(=O)N(CC2CC2)C[C@H]2CCCO2)c2c(c1)ncn2CCc1ccccc1,6%,-1.16
CC(C)[C@H]1CC[C@H](C(=O)N2CCn3cnnc3[C@@H]2C)CC1,-8%,1.31
CN(C(=O)c1ccccc1Oc1ccccc1)c1ccccc1,6%,-0.68
O=C(Nc1nc(C(F)(F)F)cs1)c1ccc(-n2cc(Br)cn2)nn1,-13%,1.58
O=C(c1nnc(-c2cc(S(=O)(=O)NC3CCCCCCC3)c[nH]2)o1)N1CCCC1,-12%,1.31
CCCN1CCN(C(=O)c2cccn2C2CC2)CC1=O,-7%,1.34
O=C(Cc1cccc(Br)c1)NCC1CCNCC1,-6%,0.59
CCOc1cc(CNS(=O)(=O)N(C)C)ccn1,0%,0.01
Cc1cc(C(=O)N2CCc3[nH]nc(C)c3C2)c2c(C)noc2n1,1%,-0.09
CCc1ccccc1NC(=O)c1sccc1S(=O)(=O)N1CCc2ccccc2C1,38%,-1.2
Cc1ccc(N2CCOC2=O)c(-c2cccc(C(=O)N3CCC[C@H](C#N)C3)c2)c1,-1%,0.17
C=C(C)CN(CC)C(=O)Nc1cc(C)cc(C)n1,1%,-0.09
Cc1ccc(CN(Cc2ccc(F)cc2)C(=O)CN(C2CC2)S(=O)(=O)c2ccccc2)o1,-7%,1.08
O=C(NCc1cccs1)c1nn(-c2ccc(F)cc2)c2ccccc2c1=O,-7%,0.92
Cc1ccc(NC(=O)N[C@@H](CC(C)C)c2nc(-c3nnc[nH]3)no2)cc1,-8%,1.19
CC1CC(CS(=O)(=O)N2CCOC(Cn3cccn3)C2)CCO1 (centres undefined),-2%,0.35
Cc1ccc2oc(-c3noc(C(=O)NCc4ccccn4)n3)c(C)c2c1,-6%,0.79
CCc1cc(CC)c(-c2cc(-c3ccccc3)on2)c(CC)c1-c1cc(-c2ccccc2)on1,46%,-1.99
CCc1ccc(OCCN(C)C(=O)C(=O)Nc2nnc(CC)s2)cc1,-2%,0.3
Cc1nccn1CCCCNC(=O)c1c(O)cc(Cl)cc1Cl,-11%,1.46
